The other results are listed elsewhere or left out.

The subject of the assay is T1, C. trachomatis L2/434/Bu expressing GFP (CTL2-GFP).
T1 construct: L2/434/Bu GFP intracellular growth in HeLa cells
Details: species or system HeLa; C. trachomatis total inclusion area by high-content imaging, normalised to DMSO. The following applies: total inclusion area; 28.5 h, 10 µM; inhibitor. Summed up: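 Following bulk GFP and resorufin fluorescence reads, infected cells were fixed, Hoechst-stained and imaged on a high-content platform. Inclusion total area and number per well served as growth proxies; nuclei counts indicated host viability. MICs were derived as for the fluorescence assay.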
`Cn1c(=O)c2c(O)cc(=O)oc2c2ccccc21` [CBK003546]: the “% of control remaining” value is recorded as 106.149.

Regarding `CCCCCOc1ccc(Nc2ccc(-c3cccnc3)cn2)cc1` [CBK036948], the “% of control remaining” value turned out to be 123.159.

Take `O=C(O)c1cc(S(=O)(=O)Nc2ccc(O)cc2)c(Cl)cc1Cl` [CBK113231]: the “% of control remaining” value is on record as 99.0895.

Consider `O=C(CSc1nnc(-c2ccc(Cl)cc2)n1-c1ccccc1)N/N=C/c1ccco1` [CBK262996], for which the “% of control remaining” value is reported as 76.4528.

For `Cc1cc2nc3s/c(=C\c4ccc(-c5ccc(O)c(C(=O)O)c5)o4)c(=O)n3c2cc1C` [CBK262538], the “% of control remaining” value amounted to 99.6909.

With `Cc1ccccc1C(=O)Nc1cccc(NC(=O)c2ccc(-c3cc4ccccc4oc3=O)cc2)c1` [CBK267256], the “% of control remaining” value stood at 113.846.

For `CCN1CCC[C@@H]1CNC(=O)c1ccncc1` [CBK174659], the “% of control remaining” value is on record as 76.4332.

Regarding `Cc1c(C(=O)C2=C(O)C(=O)N(CCN3CCOCC3)C2c2ccccn2)cnn1-c1ccccc1` (stereo not drawn) [CBK266493], the “% of control remaining” value is on record as 109.319.

With `CC(C)n1c(=O)n(CCN2CCCC2)c2cccnc21` [CBK283532], the “% of control remaining” value amounted to 112.887.

As for `O=S(=O)(Nc1nnc(C(F)(F)F)s1)c1ccc(Oc2ccccc2)cc1` [CBK062007], the “% of control remaining” value worked out at 105.375.

For the compound `COc1cc(-c2nccnc2NCc2ccco2)cc(OC)c1OC` [CBK037072], the “% of control remaining” value came to 104.84.

On to `CC(=O)c1ccc(NS(=O)(=O)c2cc(C(=O)Nc3ccccc3C(=O)O)ccc2Br)cc1` [CBK263203], for which the “% of control remaining” value is 88.7077.

`O=C(O)c1[nH]c2ccccc2c1C(c1cc(Cl)cc([N+](=O)[O-])c1O)c1c(C(=O)O)[nH]c2ccccc12` [CBK267814]: the “% of control remaining” value is given as 70.842.

Consider `CCCC(=O)N1CCC([C@@H]2C[C@H](C(F)F)n3nc(C)cc3N2)CC1` [CBK284724], for which the “% of control remaining” value was 99.721.

For the compound `O=C(Nc1ccc(=O)n2c1[C@@H]1C[C@@H](CN(C(=O)Nc3ccc(F)cc3)C1)C2)c1ccccc1` [CBK288715], the “% of control remaining” value is 97.4769.

Consider `Cc1c(NC(=O)C2CCN(c3ccccc3Cl)C2)nnn1C` (stereo not drawn) [CBK306263], for which the “% of control remaining” value worked out at 90.2371.

With `O=C(COc1ccc(S(=O)(=O)Nc2ccc(Cl)cc2)cc1)Nc1ccccc1F` [CBK268427], the “% of control remaining” value worked out at 125.132.

For `CC(CCc1ccccc1)NC(=O)CN1CCOCC1` (stereo not drawn) [CBK268994], the “% of control remaining” value was 107.914.

Regarding `Cc1cccc(C)c1NC(=O)C(C#N)C(=O)c1nn(-c2ccccc2)c2c1CSc1ccccc1-2` (stereo not drawn) [CBK017678], the “% of control remaining” value is 105.187.

With `CCC(C)C(=O)N1CCC(c2nnc3n2CCCCC3)CC1` (stereo not drawn) [CBK282260], the “% of control remaining” value came out at 94.4428.

Turning to `COc1ccc(NC(=O)CCN2C(=O)c3ccccc3S2(=O)=O)cc1` [CBK265863], the “% of control remaining” value turned out to be 78.5441.

Consider `Cc1cc(C[C@@H]2COC[C@H]2NCc2cccs2)on1` [CBK282999], for which the “% of control remaining” value was 84.049.

In the case of `COc1ccccc1CCCN1CCC2(C1)c1[nH]c3ccccc3c1CCN2S(C)(=O)=O` (stereo not drawn) [CBK074095], the “% of control remaining” value is given as 66.7825.

For the compound `Cc1ccc(S(=O)(=O)NC(CC(=O)O)c2ccccc2)cc1` (stereo not drawn) [CBK261307], the “% of control remaining” value amounted to 100.398.

`CCc1ccc(CNC(=O)Cn2nnc(-c3ccc(CN4CCC(C)CC4)nc3SC)n2)cc1` [CBK156205T]: the “% of control remaining” value stood at 77.4163.

Turning to `OCCSc1ccc(C(F)(F)F)cn1` [CBK028739], the “% of control remaining” value is given as 10.4296.

On to `CC(=O)NC1CCN(CC2(c3ccccc3F)CCCC2)CC1` [CBK282591], for which the “% of control remaining” value is on record as 114.675.

With `Oc1c(-c2ccc(Cl)cc2)c2nc3ccccc3nc2c2ccccc12` [CBK261628], the “% of control remaining” value was 114.218.

For the compound `O=C(COc1ccc2ccccc2c1Br)NCCN1CCOCC1` [CBK267391], the “% of control remaining” value is 126.877.

For `CNCCc1ccccc1Sc1ccccc1` [CBK027155G], the “% of control remaining” value was found to be 37.7525.

With `O=c1oc(-c2ccoc2)nn1Cc1ccccc1F` [CBK283726], the “% of control remaining” value is recorded as 100.07.

Consider `OC(CNC1CCN(Cc2ccccc2)CC1)COc1ccc2c(c1)OCO2` (stereo not drawn) [CBK074645], for which the “% of control remaining” value was 102.055.

Regarding `COc1ccc([C@]23CN(C)C[C@H]2CCN(C(=O)Nc2cccc(Cl)c2)C3)cc1OC` [CBK075104T], the “% of control remaining” value was found to be 99.5797.

As for `OC(CNCCc1ccccc1)COc1c(Br)cccc1Br` (stereo not drawn) [CBK003071], the “% of control remaining” value is listed as 64.0499.

`CN(C)Cc1cc(C[C@@H]2C[C@H](NCc3ccccn3)C2(C)C)no1` [CBK289313]: the “% of control remaining” value was determined as 114.991.

As to `CCCC1(C)CCCN(Cc2nnnn2-c2ccc(S(C)(=O)=O)cc2)C1` (stereo not drawn) [CBK304133], the “% of control remaining” value stood at 57.6337.

On to `O=C1N[C@H]2CCCN(C(=O)c3cncs3)[C@H]2CCCCCOc2ccccc21` [CBK292106], for which the “% of control remaining” value is 90.8789.

For the compound `Cc1ccc(S(=O)(=O)N2CCC3(CC2)OCCO3)cc1Cl` [CBK043731], the “% of control remaining” value was found to be 88.7288.

For `CC(C)NC(=O)[C@H]1O[C@H](CCN2CCN(c3ccc(F)cc3)CC2)CC[C@@H]1O` [CBK288721], the “% of control remaining” value is 85.8173.

For the compound `CC(=O)c1ccc(-n2ncc(-c3ccc(F)cc3)n2)cc1` [CBK112889], the “% of control remaining” value worked out at 99.865.

Turning to `CS(=O)(=O)N/N=C/c1ccc(Cl)cc1Cl` [CBK026420], the “% of control remaining” value is listed as 90.7411.

Turning to `Cc1cccc2sc(NC(=O)C3COc4ccccc4O3)nc12` (stereo not drawn) [CBK287367], the “% of control remaining” value worked out at 88.4999.

As for `CCC(=O)Nc1ccc(-c2csc(N3CCC(C)CC3)n2)cc1` [CBK306490], the “% of control remaining” value is on record as 90.0369.

Turning to `COc1ccc(CNC(N)=O)cc1` [CBK013588], the “% of control remaining” value is reported as 109.602.

On to `CC1=NN(c2ccc(S(=O)(=O)O)cc2)C(=O)/C1=C/C=C/c1c(C)nn(-c2ccc(S(=O)(=O)O)cc2)c1O` [CBK278317K], for which the “% of control remaining” value came to 91.1819.

For the compound `Nc1ccc(C(=O)Oc2ccc(Oc3ccccc3)cc2)cc1` [CBK083570], the “% of control remaining” value came out at 114.548.

As to `O=C(NC(Cc1ccccc1)C(=O)O)c1ccc(Cl)cc1` (stereo not drawn) [CBK264677], the “% of control remaining” value worked out at 117.782.

As to `Cn1ncc2c1CCCN(C(=O)Cc1ccc3c(c1)CCCO3)C2` [CBK282253], the “% of control remaining” value was found to be 98.5873.

Regarding `COC(=O)c1c(C)c(C(C)=O)n(C)c1C` [CBK012459], the “% of control remaining” value came out at 67.8917.

Turning to `Cc1nc(C(=O)N(C)C(C)c2cc3ccccc3o2)nn1-c1ccc(F)cc1` (stereo not drawn) [CBK296657], the “% of control remaining” value is listed as 101.163.

For `COc1ccc(OC)c(NC(=S)NCCN2CCOCC2)c1` [CBK264927], the “% of control remaining” value worked out at 104.943.

The record behind these values is PMC12040169 (PLOS Biology, 2025).
